# In the supplement of paper PMC8728848:
# The list shows a part of the results.
# B1: Jacalin (Artocarpus integrifolia) (protein)
# chain: MAYSSLLSLSVLALLFSISSADTRKWFLANGINQNPIGIIEAAVGVSEDLLNLNGMEAKNDEQSGISQTVIVGPWGAKVSTSSNGKAFDDGAFTGIREINLSYNKETAIGDFQVVYDLNGSPYVGQNHKSFITGFTPVKISLDFPSEYIMEVSGYTGNVSGYVVVRSLTFKTNKKTYGPYGVTSGTPFNLPIENGLIVGFKGSIGYWLDYFSMYLSL
# Assays:
# Assay in all cases: glycan array binding signal (z-score within array); higher = stronger binding
# Conditions in all cases: glycan notation: IUPAC condensed, linker removed
# [1] = molecular target: Gal(b1-3)[Neu5Ac(a2-6)]GlcNAc(b1-4)Gal(b1-4)Glc
# How it was run: (§1)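 From the Consortium for Functional Glycomics database, 3228 arrays were curated, keeping only those whose protein sequence was available. Binding is given as a within-array Z-score averaged across arrays sharing a protein sequence and across linkers. Negative Z-scores can be read as non-binding.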
# [2] = molecular target: Gal(b1-3)[Neu5Ac(a2-6)]GlcNAc(b1-6)Gal(b1-4)Glc
# How it was run: as §1
# [3] = molecular target: Gal(b1-3)[Neu5Ac(b2-6)]GalNAc
# How it was run: as §1
# Gal(b1-4)Gal = molecular target: Gal(b1-4)Gal
# How it was run: as §1
# [4] = molecular target: Gal(b1-4)GalNAc(a1-3)[Fuc(a1-2)]Gal(b1-4)GlcNAc
# How it was run: as §1
# [5] = molecular target: Gal(b1-4)GalNAc(b1-3)[Fuc(a1-2)]Gal(b1-4)GlcNAc
# How it was run: as §1
# Gal(b1-4)Glc = molecular target: Gal(b1-4)Glc
# How it was run: as §1
# Gal(b1-4)Glc6S = molecular target: Gal(b1-4)Glc6S
# How it was run: as §1
# Gal(b1-4)GlcNAc = molecular target: Gal(b1-4)GlcNAc
# How it was run: as §1
# [6] = molecular target: Gal(b1-4)GlcNAc(a1-6)Gal(b1-4)GlcNAc
# How it was run: as §1
# Gal(b1-4)GlcNAc(b1-2)Man = molecular target: Gal(b1-4)GlcNAc(b1-2)Man
# How it was run: as §1
# [7] = molecular target: Gal(b1-4)GlcNAc(b1-2)Man(a1-3)Man(b1-4)GlcNAc(b1-4)GlcNAc
# How it was run: as §1
# [8] = molecular target: Gal(b1-4)GlcNAc(b1-2)Man(a1-3)[Gal(b1-4)GlcNAc(b1-2)Man(a1-6)]Man(b1-4)GlcNAc(b1-4)GlcNAc
# How it was run: as §1
# [9] = molecular target: Gal(b1-4)GlcNAc(b1-2)Man(a1-3)[Gal(b1-4)GlcNAc(b1-2)Man(a1-6)]Man(b1-4)GlcNAc(b1-4)[Fuc(a1-6)]GlcNAc
# How it was run: as §1
# [10] = molecular target: Gal(b1-4)GlcNAc(b1-2)Man(a1-3)[Gal(b1-4)GlcNAc(b1-2)Man(a1-6)][Gal(b1-4)GlcNAc(b1-4)]Man(b1-4)GlcNAc(b1-4)[Fuc(a1-6)]GlcNAc
# How it was run: as §1
# [11] = molecular target: Gal(b1-4)GlcNAc(b1-2)Man(a1-3)[Gal(b1-4)GlcNAc(b1-2)Man(a1-6)][GlcNAc(b1-4)]Man(b1-4)GlcNAc(b1-4)[Fuc(a1-6)]GlcNAc
# How it was run: as §1
# [12] = molecular target: Gal(b1-4)GlcNAc(b1-2)Man(a1-3)[GlcNAc(b1-2)Man(a1-6)]Man(b1-4)GlcNAc(b1-4)GlcNAc
# How it was run: as §1
# [13] = molecular target: Gal(b1-4)GlcNAc(b1-2)Man(a1-3)[GlcNAc(b1-4)][Gal(b1-4)GlcNAc(b1-2)Man(a1-6)]Man(b1-4)GlcNAc(b1-4)GlcNAc
# How it was run: as §1
# [14] = molecular target: Gal(b1-4)GlcNAc(b1-2)Man(a1-3)[Man(a1-6)]Man(b1-4)GlcNAc(b1-4)GlcNAc
# How it was run: as §1
# [15] = molecular target: Gal(b1-4)GlcNAc(b1-2)Man(a1-6)Man(b1-4)GlcNAc(b1-4)GlcNAc
# How it was run: as §1
# [16] = molecular target: Gal(b1-4)GlcNAc(b1-2)Man(a1-6)[GlcNAc(b1-2)Man(a1-3)]Man(b1-4)GlcNAc(b1-4)GlcNAc
# How it was run: as §1
# [17] = molecular target: Gal(b1-4)GlcNAc(b1-2)Man(a1-6)[Man(a1-3)]Man(b1-4)GlcNAc(b1-4)GlcNAc
# How it was run: as §1
binder,measurement,setting,value
B1,glycan array binding signal (z-score),[1],-0.268
same,glycan array binding signal (z-score),[2],-0.343
same,glycan array binding signal (z-score),[3],-0.284
same,glycan array binding signal (z-score),Gal(b1-4)Gal,-0.257
same,glycan array binding signal (z-score),[4],-0.256
same,glycan array binding signal (z-score),[5],-0.271
same,glycan array binding signal (z-score),Gal(b1-4)Glc,-0.274
same,glycan array binding signal (z-score),Gal(b1-4)Glc6S,-0.26
same,glycan array binding signal (z-score),Gal(b1-4)GlcNAc,-0.26
same,glycan array binding signal (z-score),[6],-0.265
same,glycan array binding signal (z-score),Gal(b1-4)GlcNAc(b1-2)Man,-0.277
same,glycan array binding signal (z-score),[7],-0.243
same,glycan array binding signal (z-score),[8],-0.276
same,glycan array binding signal (z-score),[9],-0.012
same,glycan array binding signal (z-score),[10],-0.268
same,glycan array binding signal (z-score),[11],-0.268
same,glycan array binding signal (z-score),[12],-0.24
same,glycan array binding signal (z-score),[13],-0.27
same,glycan array binding signal (z-score),[14],-0.211
same,glycan array binding signal (z-score),[15],-0.237
same,glycan array binding signal (z-score),[16],-0.153
same,glycan array binding signal (z-score),[17],-0.106
